Test results: PubChem BioAssay AID1508624 (National Center for Advancing Translational Sciences (NCATS), 2021)
The campaign covered roughly 48,000 compounds. About 120 (0.25%) were called active. Not shown: some 4% with an inconclusive outcome. Calls come from the whole dose curve; as a rule, active = well fitted activation curve with a large enough effect; inconclusive = small, poorly fitted or top-dose-only effect, or another doubt; inactive = no such curve, though single readings can be large or run the other way. The list shows a part of the results.

Test: Primary qHTS for Identification of Small Molecule Activators of Huntingtin-Antisense Promoter Activity; note: nearly all actives have a fitted effect of over 55% in size
Settings: HEK293 HTT-AS promoter firefly luciferase reporter, 24 h; series mostly up to 57.5 µM; activity change, positive = activation: at the top concentration
In short: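 Firefly luciferase readout (Dual-Glo, 10 min RT) after 24 h, 37 °C compound exposure (final up to 57.5 uM) of HEK293 reporter cells cultured 24 h beforehand; PTC124 at 50 uM final as control inhibitor; activity scaled vehicle 0%, zero RLU -100%.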
Potency is the fitted concentration of half-maximal effect.

| Compound | activity change, positive = activation | Potency |
| --- | --- | --- |
| COC(=O)CN1C(=O)C(C)(C)c2cc(S(=O)(=O)Nc3ccc(C(C)C)cc3)ccc21 | inactive: -52.7% [at 11.5 µM, percent change from vehicle, -100% = no light] | – |
| Cc1ccc(C)c(CN2C(=O)C(O)(c3c[nH]c4ccccc34)c3ccccc32)c1 (centres undefined) | inactive: -30.7% | – |
| CCc1cccc(NC(=O)c2coc(=O)c3ccccc23)c1 | inactive: -11.1% | – |
| COC(=O)c1ccc(Cl)cc1NC(=O)N1CCC(CN2CCC(C)CC2)CC1 | inactive: -14.9% | – |
| COc1cccc(NC(=O)c2oc3ccccc3c2NC(=O)Cc2cccc(C)c2)c1 | inactive: -3.26% | – |
| Cc1cn2c(=O)cc(COC(=O)C(C)Oc3ccccc3)nc2s1 (centres undefined) | inactive: -10.8% | – |
| NC1(C(=O)N[C@@H](CCO)c2ccc(Cl)cc2)CCN(c2ncnc3[nH]ccc23)CC1 | inactive: -43.3% | – |
| CCc1ccc(-n2nc(CO)c(C(=O)NCCCCc3ccccc3)n2)cc1 | inactive: -7.27% | – |
| O=C(NCc1ccc(Cl)cc1)c1cc(-c2ccc(F)cc2)on1 | inactive: 0.75% | – |
| Cc1ccccc1OCC(=O)N(Cc1ccc(C(C)C)cc1)C1CCS(=O)(=O)C1 (centres undefined) | inactive: -23.1% | – |
| CCOC(=O)[C@H](CCc1ccccc1)N[C@@H](C)C(=O)N1Cc2ccccc2C[C@H]1C(=O)O | inactive: -5.99% | – |
| CCOc1ccc(C(=O)c2cn(CC(=O)Nc3ccc(C)c(C)c3)c3ccc(OCC)cc3c2=O)cc1 | inactive: -8.74% | – |
| COc1ccc(N2CC(NC(=O)c3ccc(S(=O)(=O)N4CCOCC4)cc3)CC2=O)cc1 (centres undefined) | inactive: -28.7% | – |
| COc1ccccc1NC(=O)C1CCN(c2ncnc3c2nc2n3CCCCC2)CC1 | inactive: -16.7% | – |
| COc1cc2c(cc1OC)C(COc1ccc(C(C)C)cc1)N(C(=O)COc1ccccc1)CC2 (centres undefined) | inactive: -28.8% | – |
| CCS(=O)(=O)c1nc(S(=O)(=O)c2ccc(C)cc2)c(NCc2ccccc2Cl)s1 | inactive: -17.9% | – |
| COc1ccc(OCC(=O)N2CCN(C(=O)c3ccc(OC)cc3)CC2)cc1 | inactive: -12.4% | – |
| COc1ccc(CCNC(=O)CCCn2c(=O)c3cccn3c3ccc(F)cc32)cc1OC | inactive: -11.6% | – |
| CCOc1ccc(Nc2nc(Nc3ccc(OCC)cc3)nc(N3CCOCC3)n2)cc1 | inactive: -12.5% | – |
| Cc1cccc(C)c1NC(=O)Cn1c(=O)n(Cc2ccc3c(c2)OCO3)c(=O)c2oc3ccccc3c21 | inactive: -9.16% | – |
| CCOc1ccc(OCC)c(NC(=O)C(NS(=O)(=O)c2cccs2)c2ccccc2)c1 (centres undefined) | inactive: -16.8% | – |
| Fc1ccc(-n2ncc3c(NCCC4=CCCCC4)ncnc32)cc1 | – | active: 10 µM |
| COc1ccc(C(=O)Nc2cc(S(=O)(=O)c3ccc(Cl)cc3)c(O)c(C)c2C)cc1 | inactive: 10.3% | – |
| O=C(Nc1ccc(Br)cc1)C(Cc1ccccc1)NS(=O)(=O)c1cccc2nsnc12 (centres undefined) | inactive: -9.79% | – |
| COc1ccccc1NC(=O)Cn1nc(-c2ccc(C)cc2)c2c(c1=O)CCCC2 | inactive: -22.3% | – |

| Compound | activity change, positive = activation | Potency |
| --- | --- | --- |
| Cc1ccc(CNC(=O)c2c(C)oc3nc(C)nc(N4CCOCC4)c23)cc1 | inactive: -5.57% | – |
| CCc1ccc(-n2nc3cc(C)c(NC(=O)c4cc(OC)cc(OC)c4)cc3n2)cc1 | inactive: 3.55% | – |
| CC(C)(C)c1ccc(C(=O)NCC(c2cccs2)S(=O)(=O)c2cccs2)cc1 (centres undefined) | inactive: -30.7% | – |
| COc1cc(CN2CCc3nc(N4CCN(c5ccccn5)CC4)ncc3C2)cc(OC)c1OC | inactive: -58.9% | – |
| CCOc1ccc(S(=O)(=O)n2nc(C)c(S(=O)(=O)N3CCCCC3)c2C)cc1 | inactive: -9% | – |
| O=C(Nc1ccc(Cl)cc1C(F)(F)F)c1cc(S(=O)(=O)N2CCOCC2)ccc1F | inactive: -22.1% | – |
| CC(C)(C)OC(=O)N1CCC(c2c(C(=O)NCc3ccco3)cnn2-c2ccccc2Cl)CC1 | inactive: -14.9% | – |
| Cc1nn(CCCC(=O)NCc2ccccc2)c(=O)c2cc3sccc3n12 | inactive: -8.4% | – |
| COC(=O)c1ccccc1NS(=O)(=O)c1ccc2c(c1)CCCN2C(C)=O | inactive: -20.4% | – |
| CC(=O)c1cc(-c2ccccc2)n(CCC(=O)NC(C)c2ccccc2)c1C (centres undefined) | inactive: -15.2% | – |
| N/C(=N\N=C\c1ccc(Cl)cc1)N/N=C/c1ccc(Cl)cc1 | inactive: -10.2% | – |
| COc1ccc(C(=O)Nc2cc3c(cc2N2CCCC2)n(C)c(=O)c(=O)n3C)cc1OC | inactive: -35.7% | – |
| CCCC(=O)n1nc(-c2cccnc2)nc1NCc1ccc(OC)cc1 | inactive: 6.66% | – |
| COc1cc(NC(=O)CNS(=O)(=O)c2cccs2)cc(OC)c1OC | inactive: 0.227% | – |
| O=C(NCc1cccs1)c1ccc(CSc2nc3ccncc3n2Cc2ccccc2)cc1 | inactive: 0.355% | – |
| CC1CCC(NC(=O)c2ccc(CS(=O)(=O)c3cccc(C(F)(F)F)c3)o2)CC1 (centres undefined) | inactive: -21.8% | – |
| CCOc1ccc(S(=O)(=O)NCCc2csc3nc(-c4ccc(F)cc4)nn23)cc1 | inactive: -41.6% | – |
| COc1cccc(C2=NS(=O)(=O)N(C)C(C(=O)Nc3ccccc3SC)=C2)c1 | inactive: -7.21% | – |
| Cc1ccc(C)c(Cn2c(=O)n(Cc3ccccc3)c(=O)c3c2c2cc(C)ccc2n3C)c1 | inactive: 17.3% | – |
| Cc1ccc(C(=O)Nc2ccc(S(=O)(=O)Nc3onc(C)c3C)cc2)cc1 | inactive: 18.7% | – |
| CCOC(=O)c1ccc(NC(=O)Cn2c(=O)cc(C(F)(F)F)c3c(C)nn(C)c32)cc1 | inactive: -3.1% | – |
| Cc1ccc(Cl)cc1N1CCN(CCCNC(=O)C2COc3ccccc3C2)CC1 (centres undefined) | inactive: -34.7% | – |
| Fc1ccc(CSc2nc(NCc3ccccc3)c3ccccc3n2)cc1 | inactive: -24.6% | – |
| COc1ccc(CNC(=O)Cn2c(=O)cc(C)c3c(C)nn(-c4cccc(Cl)c4C)c32)cc1 | inactive: 4.63% | – |
